Measured values published in PMC7383879, “HSI2/VAL1 and HSL1/VAL2 function redundantly to repress DOG1 expression in Arabidopsis seeds and seedlings”.
Numbering of substitutions follows the chain as printed. Results are given in words; binding and its absence hold for the method and conditions named. For some assays here: Binding seen in cells or lysates may run through a third protein. Some binding calls cover weakened binding; strength is not graded here. Sequences can lack the tags named with a protein. Blank lines part the entries; values can stand above or below the binder they belong to.

How the values were obtained:
[1] = molecular target: T1, HSL1‐GFP (35S:HSL1‐GFP) for co-immunoprecipitation (Arabidopsis thaliana) (UniProt Q5CCK4); experiment: co-IP; total protein of agroinfiltrated tobacco leaves (50 mM Tris-HCl pH 7.5, 150 mM NaCl, 2 mM EDTA, 10% glycerol, 1% Triton X-100); anti-GFP mAb-magnetic beads overnight at 4°C; immunoblot with anti-myc
T1 sequence: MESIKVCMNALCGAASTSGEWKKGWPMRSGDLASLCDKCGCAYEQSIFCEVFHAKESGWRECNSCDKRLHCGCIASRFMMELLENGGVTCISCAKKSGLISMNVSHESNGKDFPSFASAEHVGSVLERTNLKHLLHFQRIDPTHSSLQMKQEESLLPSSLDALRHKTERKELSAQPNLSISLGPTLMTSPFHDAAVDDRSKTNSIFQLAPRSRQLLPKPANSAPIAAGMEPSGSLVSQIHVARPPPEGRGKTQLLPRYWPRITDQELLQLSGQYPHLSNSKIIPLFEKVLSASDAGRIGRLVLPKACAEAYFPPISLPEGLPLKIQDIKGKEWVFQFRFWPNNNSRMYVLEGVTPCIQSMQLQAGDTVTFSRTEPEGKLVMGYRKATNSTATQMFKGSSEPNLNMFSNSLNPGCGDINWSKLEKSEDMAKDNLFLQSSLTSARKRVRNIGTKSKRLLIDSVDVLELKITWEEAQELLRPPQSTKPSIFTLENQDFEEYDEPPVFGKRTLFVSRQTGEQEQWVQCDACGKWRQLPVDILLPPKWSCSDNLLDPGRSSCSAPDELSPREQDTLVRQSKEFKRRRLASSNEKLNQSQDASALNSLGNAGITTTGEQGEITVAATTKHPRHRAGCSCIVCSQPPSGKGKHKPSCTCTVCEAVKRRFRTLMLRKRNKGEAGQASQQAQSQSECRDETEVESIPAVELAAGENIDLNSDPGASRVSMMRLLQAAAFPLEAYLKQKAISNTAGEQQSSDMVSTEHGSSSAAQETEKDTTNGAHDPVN

[2] = molecular target: T2, HSI2‐GFP (35S:HSI2‐GFP) for co-immunoprecipitation (Arabidopsis thaliana) (UniProt Q8W4L5); experiment: as above
T2 sequence: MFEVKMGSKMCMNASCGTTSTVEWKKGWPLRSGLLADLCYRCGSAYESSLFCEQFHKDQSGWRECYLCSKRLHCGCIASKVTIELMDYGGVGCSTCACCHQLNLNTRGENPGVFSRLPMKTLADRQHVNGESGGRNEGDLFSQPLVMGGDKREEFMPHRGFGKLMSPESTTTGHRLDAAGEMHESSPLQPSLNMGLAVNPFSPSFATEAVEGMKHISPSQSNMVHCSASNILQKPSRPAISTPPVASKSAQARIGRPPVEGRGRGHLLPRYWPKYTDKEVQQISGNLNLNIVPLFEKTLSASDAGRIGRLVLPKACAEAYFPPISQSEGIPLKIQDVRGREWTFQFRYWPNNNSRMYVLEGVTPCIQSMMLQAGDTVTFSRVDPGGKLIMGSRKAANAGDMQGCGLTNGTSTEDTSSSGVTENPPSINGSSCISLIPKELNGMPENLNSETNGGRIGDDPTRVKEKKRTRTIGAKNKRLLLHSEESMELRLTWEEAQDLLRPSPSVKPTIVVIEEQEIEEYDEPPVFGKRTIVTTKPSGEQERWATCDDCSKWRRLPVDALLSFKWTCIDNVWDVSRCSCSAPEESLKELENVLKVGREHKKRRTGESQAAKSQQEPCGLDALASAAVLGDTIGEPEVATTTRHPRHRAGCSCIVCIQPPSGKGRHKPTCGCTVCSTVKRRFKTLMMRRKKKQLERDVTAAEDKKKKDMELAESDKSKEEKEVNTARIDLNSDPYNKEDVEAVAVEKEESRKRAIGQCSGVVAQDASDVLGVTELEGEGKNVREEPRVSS

[3] = molecular target: T3, HSI2, full length, yeast two-hybrid fusion (Arabidopsis thaliana) (UniProt Q8W4L5); experiment: two-hybrid; Matchmaker GAL4-based two-hybrid system 3, pGADT7 and pGBKT7, yeast AH109; growth on minimal medium -Leu/-Trp/-His/-Ade
T3 sequence: T2 sequence

[4] = molecular target: T4, HSL1, full length, yeast two-hybrid fusion (Arabidopsis thaliana) (UniProt Q5CCK4); experiment: as above
T4 sequence: T1 sequence

[5] = molecular target: T5, HSI2‐LIKE1 (HSL1), BiFC fusion (Arabidopsis thaliana) (UniProt Q5CCK4); experiment: split reporter; BiFC: nEYFP and cEYFP fusions, Agrobacterium GV2260 co-infiltrated into tobacco (N. benthamiana) leaves; YFP fluorescence by confocal microscopy after 2 d
T5 sequence: T1 sequence

[6] = molecular target: HSI2mPHD (HSI2 with eight conserved amino acids of the PHD domain substituted), BiFC fusion (Arabidopsis thaliana) (UniProt Q8W4L5); experiment: as above

binding [1]: binds
binding [2]: binds
B1: CURLY LEAF (CLF) for co-immunoprecipitation (protein, UniProt P93831 1-902)
chain: MASEASPSSSATRSEPPKDSPAEERGPASKEVSEVIESLKKKLAADRCISIKKRIDENKKNLFAITQSFMRSSMERGGSCKDGSDLLVKRQRDSPGMKSGIDESNNNRYVEDGPASSGMVQGSSVPVKISLRPIKMPDIKRLSPYTTWVFLDRNQRMTEDQSVVGRRRIYYDQTGGEALICSDSEEEAIDDEEEKRDFLEPEDYIIRMTLEQLGLSDSVLAELASFLSRSTSEIKARHGVLMKEKEVSESGDNQAESSLLNKDMEGALDSFDNLFCRRCLVFDCRLHGCSQDLIFPAEKPAPWCPPVDENLTCGANCYKTLLKSGRFPGYGTIEGKTGTSSDGAGTKTTPTKFSSKLNGRKPKTFPSESASSNEKCALETSDSENGLQQDTNSDKVSSSPKVKGSGRRVGRKRNKNRVAERVPRKTQKRQKKTEASDSDSIASGSCSPSDAKHKDNEDATSSSQKHVKSGNSGKSRKNGTPAEVSNNSVKDDVPVCQSNEVASELDAPGSDESLRKEEFMGETVSRGRLATNKLWRPLEKSLFDKGVEIFGMNSCLIARNLLSGFKSCWEVFQYMTCSENKASFFGGDGLNPDGSSKFDINGNMVNNQVRRRSRFLRRRGKVRRLKYTWKSAAYHSIRKRITEKKDQPCRQFNPCNCKIACGKECPCLLNGTCCEKYCGCPKSCKNRFRGCHCAKSQCRSRQCPCFAADRECDPDVCRNCWVIGGDGSLGVPSQRGDNYECRNMKLLLKQQQRVLLGISDVSGWGAFLKNSVSKHEYLGEYTGELISHKEADKRGKIYDRENCSFLFNLNDQFVLDAYRKGDKLKFANHSPEPNCYAKVIMVAGDHRVGIFAKERILAGEELFYDYRYEPDRAPAWAKKPEAPGSKKDENVTPSVGRPKKLA

binding [3]: binds
binding [4]: binds
B2: HSI2, full length, yeast two-hybrid fusion (protein, UniProt Q8W4L5 1-790)
chain: T2 sequence

binding [5]: no binding
binding [6]: no binding
B3: HSI2mPHD (HSI2 with eight conserved amino acids of the PHD domain substituted), BiFC fusion (protein, UniProt Q8W4L5 1-790)
chain: T2 sequence with C39S, C42S, C65S, C68S, H73L, C76S, C93S, C96S

binding [3]: no binding
binding [4]: no binding
B4: HSI2mPHD, yeast two-hybrid fusion (protein, UniProt Q8W4L5 1-790)
chain: T2 sequence with C39S, C42S, C65S, C68S, H73L, C76S, C93S, C96S
